Reference: PubChem BioAssay AID485344 (National Center for Advancing Translational Sciences (NCATS), 2010)
The campaign covered roughly 340,000 compounds. About 6,900 (2%) were called active. Cut-off read from the data, not from the text of the source: active = inhibition above about 30%; inactive = below that, where a call was filed. Only a part is listed here, and it is no random draw. The source gives no active or inactive call for entries shown without one.
Note: 0% is about no effect.

Each molecule was assayed against D(2) dopamine receptor (Homo sapiens) (UniProt P14416) (assay: HTS Assay for Allosteric Antagonists of the Human D2 Dopamine Receptor: Primary Screen for Antagonists). Settings: HEK293 TREx D2 cells, calcium flux, dopamine EC80; at 10 µM; stronger effect = higher value.
Chain of UniProt P14416 (P14416 whole entry, looked up): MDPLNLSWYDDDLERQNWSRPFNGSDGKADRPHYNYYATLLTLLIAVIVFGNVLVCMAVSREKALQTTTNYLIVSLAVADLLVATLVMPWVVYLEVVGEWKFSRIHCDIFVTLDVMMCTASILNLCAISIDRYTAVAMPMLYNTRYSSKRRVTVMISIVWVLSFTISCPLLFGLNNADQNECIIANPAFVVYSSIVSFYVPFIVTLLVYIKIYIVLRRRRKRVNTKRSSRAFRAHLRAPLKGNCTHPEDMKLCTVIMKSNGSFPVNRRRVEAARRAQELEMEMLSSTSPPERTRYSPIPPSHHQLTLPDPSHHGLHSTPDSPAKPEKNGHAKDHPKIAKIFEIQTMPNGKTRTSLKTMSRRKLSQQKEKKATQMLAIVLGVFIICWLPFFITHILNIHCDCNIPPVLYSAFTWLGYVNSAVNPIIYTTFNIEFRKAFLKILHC
Summary of the method: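 Compounds are added to dye-loaded, induced HEK293 T-REx cells coupled to calcium release via D2; after a 3 min kinetic read an EC80 dopamine stimulus is given and fluorescence is recorded for 3 more min.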
With `COc1ccccc1N1CCN(S(=O)(=O)CCNC(=O)Cc2ccc(Cl)cc2)CC1` the inhibition was 8.82%. For `Nc1ccc2oc(-c3ccccc3Cl)cc(=O)c2c1O`, the inhibition was active: 50.3%. For `CCCS(=O)(=O)N1CC(=O)N(c2ccc(C)cc2C)C(C)(C(=O)NC2CCCCCC2)C1` (stereo not given), the inhibition was -3.49%. `O=C(Cn1c(=O)nc(-c2ccccc2)c2cc(Cl)ccc21)NCc1ccc(Cl)cc1` was tested, and the inhibition was 2.55%. `COc1ccc(C(CC(=O)Nc2cc(OC)c(OC)c(OC)c2)N2Cc3ccccc3C2=O)cc1` (stereo not given) gave an inhibition of 2.26%. `O=C(Nc1cnn(Cc2ccc(Cl)cc2Cl)c1)c1noc2c1CCc1ccccc1-2` showed an inhibition of -1.27%. `O=C(CCS(=O)(=O)c1cc2c3c(c1)CCN3C(=O)CC2)Nc1cccc(Br)c1` was tested, and the inhibition was 1.13%. With `CCOc1ccc(CCNC(=O)c2ccc3c(c2)N(Cc2ccccc2F)C(=O)c2ccccc2S3=O)cc1OCC` (stereo not given) the inhibition was 7.85%. `COc1ccc(CCNS(=O)(=O)c2cc(-c3onc(C)c3C)ccc2OC)cc1OC` showed an inhibition of -1.41%. With `Cc1ccc(CCNC(=O)c2c[nH]c3ccc(S(=O)(=O)Nc4cccc(C(F)(F)F)c4)cc3c2=O)cc1` the inhibition was -10.1%. `CCC1=C(c2ccc(C)cc2)S(=O)(=O)N=C1N1CCC(C(=O)NCCc2ccc(Cl)cc2)CC1` gave an inhibition of 8.19%. Molecule `O=C(CC1N=C2c3ccccc3N=C(SCc3cccc(Cl)c3)N2C1=O)NCCc1ccccc1` (stereo not given) has an inhibition of 11.1%. `Cc1ccc(S(=O)(=O)C(CNC(=O)C(=O)NCCc2ccc(Cl)cc2)c2cccs2)cc1` (stereo not given) showed an inhibition of -4.42%. `CCCCNC(=O)CCn1c(=O)c2cccn2c2cccnc21` gave an inhibition of -9.23%. Molecule `CCN(C(=O)c1c(C)oc2ncn(CC(C)C)c(=O)c12)c1cccc(Cl)c1` has an inhibition of -7.96%. In the case of `COc1cc(/C=C2\SC(N3CCc4ccccc4C3)=NC2=O)cc(OC)c1OC`, the inhibition is reported as active: 56.3%. `CCCn1c(CCC(=O)Nc2ccc(C)c(Cl)c2)nc2cccnc21` showed an inhibition of 22.2%. For `Cc1oc(-c2ccc(C(=O)NCc3ccccc3Cl)cc2)nc1CN1CCc2ccccc21`, the inhibition was 2.03%. `COc1ccc(C)cc1NC(=O)c1cc(S(=O)(=O)N2CCc3ccccc3C2)ccc1F` gave an inhibition of -8.55%. For `CC(=O)N(C(C)=O)c1nc2nc(C)cc(C)n2n1`, the inhibition was active: 102%. For `Cc1ccc(-n2c(=O)c3c(c4cc(C)ccc4n3C)n(Cc3ccc(F)cc3)c2=O)cc1`, the inhibition was 4.15%. Molecule `Cc1ccc(NC(=O)C(Cc2ccccc2)N2Cc3ccccc3C2=O)cc1Cl` (stereo not given) has an inhibition of 14.2%. `O=C(c1cc(F)ccc1F)C1CCCN(C(=O)CCN2CCCCO2)C1` (stereo not given) was tested, and the inhibition was active: 31.7%. `CC(C)c1ccc(NC(=O)c2ccc3c(O)c(S(=O)(=O)c4ccccc4)c(=O)[nH]c3c2)cc1` showed an inhibition of 2.32%. With `O=C(NCCCN1CCCC1=O)c1ccc2c(c1)NC(=O)C(N1CCOCC1)S2` (stereo not given) the inhibition was active: 32.9%.
